Laboratory results reported in the supplement of paper PMC12217912.
Some of the results follow. The full chains were built here from the parent and the listed change. Values near 0.05 are background.

B1: TEV protease; numbered along this chain (parent)
chain: MGESLFKGPRDYNPISSSICHLTNESDGHTTSLYGIGFGPFIITNKHLFRRNNGTLVVQSLHGVFKVKDTTTLQQHLVDGRDMIIIRMPKDFPPFPQKLKFREPQREERICLVTTNFQTKSMSSMVSDTSCTFPSGDGIFWKHWIQTKDGQCGSPLVSTRDGFIVGIHSASNFTNTNNYFTSVPKNFMELLTNQEAQQWVSGWRLNADSVLWGGHKVFMVKPEEPFQPVKEATQL

Variants of: B1
Test: raw area under fraction-flipped curve 0-4 h after induction (AUC4h, not background-subtracted), DNA-recorder readout of cleavage of the substrate (dimensionless); higher = more cleavage of the substrate by the protease variant
Conditions: temperature: 34 °C; time window: 0-4 h after rhamnose induction
Method: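 In vivo DNA recorder in E. coli TOP10(DE3) ΔrhaA at 34 °C. Each TEVp single-site mutant (parent TEVp 0) is paired with a single-site variant of the 7-mer TEVs (canonical ENLYFQ|S). The substrate sits between flexible linkers in a Bxb1-sfGFP-TEVs-SsrA fusion, so cleavage stabilises Bxb1 and speeds flipping of a recombination array, read by NGS. The value is the raw area under the fraction-flipped curve over 0-4 h after rhamnose induction (AUC4h), with ≥20 reads per time point. It is not background-subtracted; inactive controls average about 0.047.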
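Note: Bxb1 expression induced with 0.2% (w/v) L-rhamnose at OD600 near 0.5, cultures sampled hourly, flipped fraction per protease–substrate barcode pair counted by paired-end Illumina sequencing.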

Row | Variant | area with substrate CNLYFQS | area with substrate DNLYFQS | area with substrate FNLYFQS | area with substrate HNLYFQS | area with substrate NNLYFQS | area with substrate PNLYFQS | area with substrate RNLYFQS | area with substrate TNLYFQS | area with substrate VNLYFQS | area with substrate INLYFQS | area with substrate LNLYFQS | area with substrate MNLYFQS | area with substrate WNLYFQS | area with substrate KNLYFQS | area with substrate SNLYFQS | area with substrate YNLYFQS | area with substrate GNLYFQS | area with substrate QNLYFQS
1 | G37S | 0.0576 | 0.0597 | 0.0606 | 0.0389 | 0.0519 | 0.0662 | 0.044 | 0.0547 | 0.057 | – | – | – | – | – | – | – | – | –
2 | A207K | 0.0657 | 0.0852 | 0.0628 | 0.0722 | – | – | – | – | – | 0.0646 | 0.0548 | 0.0753 | 0.0469 | – | – | – | – | –
3 | F49D | 0.0549 | 0.0483 | – | 0.0707 | – | 0.0469 | – | 0.0745 | 0.0513 | 0.0571 | 0.057 | 0.0377 | 0.0464 | 0.069 | 0.061 | 0.0616 | – | –
4 | G214D | 0.051 | 0.0552 | – | 0.0717 | 0.0562 | 0.058 | – | 0.054 | 0.0561 | 0.0627 | 0.0348 | – | 0.0459 | – | 0.0893 | – | 0.0454 | –
5 | K90V | 0.0829 | 0.0616 | – | 0.0613 | – | 0.0625 | – | 0.0604 | – | – | – | 0.0641 | 0.0736 | – | – | 0.0727 | – | –
6 | M219W | 0.075 | 0.0823 | 0.0594 | 0.0687 | 0.0563 | 0.0707 | 0.0606 | 0.06 | – | 0.0669 | 0.0669 | 0.0652 | 0.0575 | 0.0703 | 0.0641 | 0.0557 | – | –
7 | V229Q | 0.0782 | 0.0889 | – | 0.0567 | – | 0.0661 | – | 0.0593 | – | 0.0607 | 0.0714 | – | 0.0547 | 0.0758 | 0.0663 | 0.0436 | – | –
8 | D137F | 0.0604 | 0.0728 | – | 0.0662 | 0.053 | 0.06 | – | 0.0569 | – | – | 0.0536 | 0.0556 | – | 0.0713 | – | 0.0612 | 0.0464 | –
9 | T147F | 0.0647 | 0.0601 | 0.0618 | 0.0599 | – | 0.034 | – | – | 0.0591 | – | – | – | 0.0567 | – | – | 0.0587 | 0.0531 | –
10 | P14K | 0.0701 | 0.0774 | – | 0.0606 | 0.0625 | 0.0437 | – | 0.0594 | – | 0.0583 | 0.0707 | 0.0668 | 0.0731 | 0.0637 | – | – | 0.0584 | –
11 | S171H | 0.0489 | 0.0671 | 0.058 | 0.0562 | 0.0712 | 0.0279 | 0.0253 | 0.0615 | – | 0.0683 | – | 0.0602 | 0.0596 | 0.0887 | 0.0664 | 0.0658 | 0.0663 | 0.0727
12 | V58R | 0.0433 | 0.0367 | 0.049 | 0.0504 | 0.0549 | 0.0436 | – | – | – | – | – | – | 0.058 | – | – | – | 0.039 | –
13 | D79M | 0.0695 | 0.0651 | 0.0595 | 0.0575 | – | 0.0531 | – | – | – | 0.0534 | 0.0609 | 0.0604 | – | 0.0301 | – | 0.064 | 0.0569 | –
14 | N177C | 0.0926 | 0.125 | 0.0699 | 0.113 | – | 0.0904 | – | 0.0856 | 0.0888 | – | 0.0552 | 0.0989 | 0.0689 | 0.0837 | – | 0.0712 | – | 0.114
15 | G202R | 0.068 | 0.0573 | – | 0.0488 | 0.0708 | – | – | 0.0646 | – | – | – | – | 0.0517 | 0.065 | 0.05 | – | 0.0459 | –
16 | L5P | 0.0744 | 0.0604 | 0.0534 | 0.0603 | 0.0588 | – | – | – | – | – | – | – | – | 0.0593 | 0.0561 | – | – | –
17 | K68A | 0.0719 | 0.126 | 0.0619 | 0.0599 | – | 0.0676 | 0.0586 | 0.0635 | 0.0613 | 0.0662 | – | 0.0764 | 0.0829 | 0.0739 | 0.07 | 0.0542 | – | –
18 | H29T | 0.0769 | 0.0843 | – | – | 0.0614 | – | – | – | 0.0644 | 0.0653 | 0.0797 | 0.0706 | 0.057 | – | 0.0768 | – | 0.0678 | 0.0632
19 | H29M | 0.0748 | 0.0957 | 0.0741 | 0.07 | – | 0.0629 | – | 0.0418 | – | 0.061 | 0.0652 | 0.0634 | 0.0525 | – | 0.084 | 0.0904 | 0.0552 | –
20 | T129L | 0.0705 | 0.0794 | 0.0597 | 0.056 | – | 0.0528 | – | 0.0416 | 0.0331 | – | 0.0736 | 0.0665 | 0.0593 | – | 0.0614 | – | 0.0841 | 0.0621
21 | E3R | 0.0697 | 0.0796 | – | 0.0661 | 0.06 | – | – | – | – | 0.0636 | – | 0.0635 | – | 0.0696 | 0.0774 | – | 0.0661 | –
22 | R10W | 0.081 | 0.0734 | 0.0668 | 0.0613 | – | 0.0773 | – | 0.0745 | – | – | 0.0576 | 0.0676 | 0.0575 | 0.0282 | 0.0592 | – | 0.0657 | 0.0641
23 | K185C | 0.0758 | 0.109 | 0.0521 | 0.0664 | 0.0687 | 0.085 | – | 0.0715 | – | 0.0575 | 0.0569 | 0.0697 | 0.0578 | 0.0492 | 0.0581 | 0.0938 | 0.0848 | –
